Structures are written as SMILES.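 Each compound was tested at five concentrations against cells in 96-well plates for 48 hours. GI50: concentration for 50% inhibition of growth.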 Calls of active or inactive are those of the source. Rule as the data show it: active = GI50 up to about 1.1 µM and inactive = higher.

The assay deals with NCI-H322M. Description: DTP human tumour cell line panel, 48 h.
For `Oc1ccc(Cc2cc(Cl)cc(Cl)c2O)cc1Cl`, the GI50 is inactive: 19.6 µM.
The value for `NS(=O)(=O)c1ccc(NC2=CC(=O)C(=O)c3ccccc32)cc1` was inactive: > 100 µM; that for `CCOC(=O)c1c(-c2ccc(O)c(OC)c2)c(C#N)c(=S)n(C2OC(COC(C)=O)C(OC(C)=O)C(OC(C)=O)C2OC(C)=O)c1-c1ccccc1` (stereo unspecified) was inactive: > 100 µM; that for `CCCCOC(=O)NC(=O)c1cn(C2CCCCC2)c(=O)[nH]c1=O` was inactive: 19.3 µM.
Regarding `COc1cccc2c1C(=O)c1c(O)c3c(c(O)c1C2=O)C[C@@](O)(C(=O)CO)C[C@@H]3OC1CC(N(C)C)C(O)C(C)O1` (stereo partly specified), the GI50 is active: < 0.016 µM.
Regarding `CC1=CC(=O)NP(=O)(Oc2ccc(C)cc2)N1` (stereo unspecified), the GI50 is inactive: > 100 µM.
For the compound `O=P(c1ccccc1)(c1ccccc1)C(NCc1ccccc1)c1ccc(F)cc1` (stereo unspecified), the GI50 is inactive: 14.9 µM.
As for `O=[N+]([O-])/C=C/COCc1cc2c(cc1Br)OCO2`, the GI50 was inactive: > 100 µM.
The value for `CCC(C)C1=C(O)[N+]2([O-])Oc3ccc(-c4c(O)c(O)c(-c5ccc(OC(C)=O)cc5)c(OC(C)=O)c4OC(C)=O)cc3OC2(C(C)CC)C(=O)N1O` (stereo unspecified) was inactive: > 50 µM; that for `O=C(N/N=C/C=C/c1ccc([N+](=O)[O-])o1)c1ccc(C(=O)N/N=C/C=C/c2ccc([N+](=O)[O-])o2)cc1` was inactive: > 89.9 µM; that for `C[N+](C)(C)Cc1c(CC#N)[nH]c2ccccc12` was inactive: > 100 µM.
Turning to `C/C=C1/CN2CCC34c5ccccc5N5C(=O)C(C6CC78c9ccccc9N9C(=O)C=CC(C%10CC7N6C/C%10=C/C)C98)=CC(C1CC23)C54` (stereo unspecified), the GI50 was inactive: 6.81 µM.
The same measure for `n1onc2c1NC1Nc3nonc3NC1N2` (stereo unspecified): inactive: > 100 µM; for `CC1=NC(C(C)C)C(=O)O1` (stereo unspecified): inactive: > 100 µM.
Take `O=C1N/N=C\Nc2ccc(cc2)S(=O)(=O)c2ccc(cc2)/N=C\NNC1=O`: the GI50 was inactive: > 100 µM.
Turning to `CCOc1ccccc1/N=N/C1C(=O)N(C(=O)CC(=O)Nc2ccccc2Cl)N=C1C` (stereo unspecified), the GI50 was inactive: > 100 µM.
With `COc1cc(/C=C2\C[C@H]3[C@@H]4CCC5=CC(=O)CC[C@]5(C)[C@H]4CC[C@]3(C)C2=O)cc(OC)c1OC`, the GI50 is inactive: 29.4 µM.
The same measure for `O=[N+]([O-])c1ccc2c(c1)nc1n2C(c2c(F)cccc2F)SC1` (stereo unspecified): inactive: > 100 µM; for `CCCOc1ccc(-c2nc(-c3ccc(/N=C/c4ccc(N(CCOS(C)(=O)=O)CCOS(C)(=O)=O)cc4C)cc3)cs2)cc1`: inactive: 15.5 µM; for `CCCN(CCC)C(=S)N/N=C(/C)c1ccccc1O`: inactive: 7.59 µM.
The same measure for `Clc1ccc(OCc2nnc(CCCCCCCCc3nnc(COc4ccc(Cl)cc4)o3)o2)cc1`: inactive: > 100 µM; for `COc1c(C)c(C/C=C(\C)CC/C=C(\C)CC/C=C(\C)CCC=C(C)C)c(OC)c2ccccc12`: inactive: > 100 µM.
The same measure for `CC1=C(C(=S)Nc2ccc(Cl)c(C(=O)OC(C)C)c2)SCCO1`: inactive: 24.9 µM; for `CCCCCCCCCCCCCCCCP(=O)(O)OCC(N)C(=O)O` (stereo unspecified): inactive: 13.2 µM.
Consider `Nc1nc(Cl)c2ncn(CCCC(c3ccccc3)P(=O)(O)O)c2n1` (stereo unspecified), for which the GI50 was inactive: > 100 µM.
The same measure for `CN(c1cn(C2CC[C@@H](CO)O2)c(=O)[nH]c1=O)C1CCCCC1` (stereo partly specified): inactive: > 100 µM.
The value for `CON(C)C(=O)C(Cc1ccccc1)NC(=O)OCc1ccccc1` (stereo unspecified) was inactive: > 100 µM.
For `CCCCCCCCCCCC[N+]12CC[N+](C)(CC1)CC2`, the GI50 is inactive: 29.9 µM.
`COc1ccc2c(=O)c(O)c(-c3ccc(OC)c(OC)c3)oc2c1`: the GI50 was inactive: 6.11 µM.
The value for `Nc1ccc(N)c2c1C(=O)c1c(N)ccc(N)c1C2=O` was inactive: > 73.1 µM; that for `CC1=C(SCCO)C(=O)c2ccccc2C1=O` was inactive: 15.1 µM.
